Here are results for 49 compounds from publication PMC6919601, “Identification of Plasmodium dipeptidyl aminopeptidase allosteric inhibitors by high throughput screening” (PLoS ONE, 2019).

Out of some 110,000 compounds screened, about 230 (0.21%) showed an effect of 50% or more. Some of the results follow.
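Also: 30 min substrate incubation versus DMSO and 10 µM JCP410 controls.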

DPAP1, sequence (Q8IIJ9 whole entry, looked up): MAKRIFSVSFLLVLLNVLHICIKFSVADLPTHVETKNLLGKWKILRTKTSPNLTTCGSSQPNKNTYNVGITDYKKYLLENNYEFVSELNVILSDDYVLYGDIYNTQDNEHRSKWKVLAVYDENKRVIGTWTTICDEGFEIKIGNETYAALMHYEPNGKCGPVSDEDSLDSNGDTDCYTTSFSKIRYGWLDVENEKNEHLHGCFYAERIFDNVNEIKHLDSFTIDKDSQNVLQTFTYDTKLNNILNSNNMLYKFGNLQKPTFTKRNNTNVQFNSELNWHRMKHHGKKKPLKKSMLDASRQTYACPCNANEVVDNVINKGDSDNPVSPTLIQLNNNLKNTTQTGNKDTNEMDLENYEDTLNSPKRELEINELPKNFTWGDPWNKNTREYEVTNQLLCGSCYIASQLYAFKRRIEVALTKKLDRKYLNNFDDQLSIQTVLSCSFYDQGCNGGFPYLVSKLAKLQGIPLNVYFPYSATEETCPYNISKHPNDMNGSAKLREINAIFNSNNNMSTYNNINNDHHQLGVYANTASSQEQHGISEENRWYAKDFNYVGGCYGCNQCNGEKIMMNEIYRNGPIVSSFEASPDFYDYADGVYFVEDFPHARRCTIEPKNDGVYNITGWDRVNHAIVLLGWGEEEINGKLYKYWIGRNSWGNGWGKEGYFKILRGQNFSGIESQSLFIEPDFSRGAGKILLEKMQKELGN

This experiment concerns the target DPAP1 (Plasmodium falciparum, UniProt Q8IIJ9). Nature of the experiment: primary screen, percent inhibition; read by cleavage of a fluorogenic dipeptide substrate; higher = more effect of the substance. Set-up: species or system P. falciparum D10 trophozoite lysates; single well.
Consider `CSc1ncc(CC(=O)O)c(Sc2ccc(Cl)cc2)n1`, for which the “% Inhibition @ 10 uM” value was -9.24%.
With `Cc1c(NC(=O)Cc2ccccc2)c(=O)n(-c2ccccc2)n1C` the figure was -6.44%.
On to `CCN(C(=O)CN1C(=O)C2CCCCC2C1=O)c1nnc(-c2ccc(Cl)cc2)s1` (stereo not shown), for which the “% Inhibition @ 10 uM” value was found to be 1.63%.
Under `O=C1c2cccc3c(Br)ccc(c23)C(=O)N1CCO` stands 3.32%; under `Cc1noc2ncn(CC(=O)NCC3CCCO3)c(=O)c12` (stereo not shown), -4.4%; under `O=C1c2ccccc2C(Nc2cccnc2)N1Cc1ccc2c(c1)OCO2` (stereo not shown), -4.69%.
Under `O=C(COc1ccc(F)cc1)N1c2ccccc2Sc2ccccc21` stands 3.64%.
With `CCOC(=O)c1c(NC(=O)/C=C/C(=O)O)sc2c1CCCC2` the figure was 0.716%.
For `COc1ccc(NC(=O)CN(c2ccc(F)cc2)S(=O)(=O)c2ccc(C)cc2)cc1`, the “% Inhibition @ 10 uM” value is -1.61%.
Under `COc1ccc(OC)c(-c2[nH]nc3c2C(c2cccnc2)C(C#N)=C(N)O3)c1` (stereo not shown) stands 2.23%; under `CCc1[nH]nc2c1C(c1ccccc1)C(C#N)=C(N)O2` (stereo not shown), -1.64%.
`O=C(/C=C/c1ccccc1O)c1ccco1`: the “% Inhibition @ 10 uM” value is given as -0.339%.
On to `CC[N+]1=C(/C=C/c2ccc(OC)cc2)C(C)(C)c2ccc(C(=O)OC)cc21`, for which the “% Inhibition @ 10 uM” value was -4.78%.
Under `N#CC1(NC(=O)[C@H](Cc2c(F)cccc2F)NC(=O)c2ccc(-c3ccccc3Cl)cc2)CCS(=O)(=O)CC1` stands -5.2%.
For the compound `CC(=O)Nc1cc2ccccc2cc1NC(C)=O`, the “% Inhibition @ 10 uM” value came to 0.658%.
Regarding `Cc1ccccc1OCC(=O)Nc1nc(-c2ccc(S(=O)(=O)N3CCOCC3)cc2)cs1`, the “% Inhibition @ 10 uM” value was -6.4%.
With `COc1ccc(NC(=O)CN(c2cccc(Br)c2)S(C)(=O)=O)c(OC)c1`, the “% Inhibition @ 10 uM” value is on record as -8.37%.
On to `CCOC(=O)c1[nH]c(C)c(C(=O)NCc2ccc(Cl)cc2)c1C`, for which the “% Inhibition @ 10 uM” value is -1.66%.
With `Clc1ccc(CN2CCc3c([nH]c4ccccc34)C2)cc1Cl` the figure was -4.94%; with `CCC(C)NC(=O)C(Cc1ccc([N+](=O)[O-])cc1)N1C(=O)c2ccccc2C1=O` (stereo not shown), -6.11%.
With `Cc1ccc2oc(=O)c3cnn(CC(=O)Nc4cccnc4)c3c2c1` the figure was 4.74%; with `CCN(CC)CCn1cnc2ccccc21`, 0.177%.
Regarding `Cn1c(NC(=O)Nc2cccc(C(F)(F)F)c2)cc(=O)n(C)c1=O`, the “% Inhibition @ 10 uM” value is -0.984%.
Regarding `CC(NC(=O)CCc1nc2ccccc2[nH]1)c1ccccc1` (stereo not shown), the “% Inhibition @ 10 uM” value was determined as 4.58%.
For `CC[C@@H](C[C@H](NC(=O)OCc1ccccc1)C(=O)NCC#N)c1ccccc1`, the “% Inhibition @ 10 uM” value was -8.36%.
As to `CCOC(=O)N1CCN(C(=O)c2ccc(C(C)(C)C)cc2)CC1`, the “% Inhibition @ 10 uM” value is -6.68%.
As to `Cc1ccc(-n2c(Cc3cccn3C)nnc2SCC(=O)Nc2nnc(C)s2)cc1`, the “% Inhibition @ 10 uM” value is reported as -2.19%.
For the compound `COC(=O)c1ccc(N2CCCC2=O)cc1`, the “% Inhibition @ 10 uM” value is given as -5.57%.
Take `COc1ccc(C(=O)N2CCN(c3ccccn3)CC2)cc1OC`: the “% Inhibition @ 10 uM” value was -3.21%.
As for `O=C(CCCN1C(=O)CSc2ncccc21)N1CCN(c2ccccn2)CC1`, the “% Inhibition @ 10 uM” value is recorded as 1.03%.
With `COc1ccc(CN2CCN(Cc3ccc(F)cc3)CC2)c(OC)c1OC`, the “% Inhibition @ 10 uM” value was found to be 0.931%.
As to `COc1ccc(C(=O)NC(c2ccc(OC)cc2)c2cc(Cl)c3cccnc3c2O)cc1` (stereo not shown), the “% Inhibition @ 10 uM” value is 0.219%.
Under `CCOCCCNC(=O)CNC(=S)N(Cc1ccc(C)cc1)Cc1ccco1` stands -2.14%.
In the case of `COc1ccc(C2CC(=O)NC3=C2C(=O)CCC3)cc1Cl` (stereo not shown), the “% Inhibition @ 10 uM” value is -1.92%.
Under `O=C(CNS(=O)(=O)c1ccccc1)Nc1ccc(Br)cc1` stands -0.318%; under `CCOc1ccc(C(=O)N(CCCN(C)C)c2nc3ccc(C)cc3s2)cc1`, -2.95%.
Consider `COc1cc(C(=O)N2CCN=C2c2ccccc2)cc(OC)c1OC`, for which the “% Inhibition @ 10 uM” value worked out at 1.26%.
`Fc1ccc(N2CCN(Cc3ccccc3C(F)(F)F)CC2)cc1`: the “% Inhibition @ 10 uM” value is given as -2.78%.
Consider `O=c1oc2ccccc2c(N2CCN(Cc3ccccc3)CC2)c1CN1CCCC1`, for which the “% Inhibition @ 10 uM” value was -3.34%.
Under `CC(C)(C)c1cc(C(F)(F)F)n2ncnc2n1` stands -2.14%.
With `O=C(Nc1ccc(CN2CCOCC2)cc1)c1ccco1` the figure was -1.04%.
For `CCOC(=O)N1CCN(C(=O)CSCC(=O)Nc2nc(-c3ccc(OC)cc3)cs2)CC1`, the “% Inhibition @ 10 uM” value came to 2.03%.
Under `O=C(NCc1cccnc1)c1cc(-c2ccc(Br)cc2)n[nH]1` stands -3.88%; under `Cc1nn(-c2ccccc2)c2sc(C(=O)N(C)c3ccccc3)cc12`, -7.18%.
Take `CC(=O)c1cccc(N2C(=O)C3C4CCC(C4)C3C2=O)c1` (stereo not shown): the “% Inhibition @ 10 uM” value is on record as -4.88%.
Consider `Cc1cc(C)c(CN2CCCN(Cc3cc(C)ccc3C)S2(=O)=O)c(C)c1`, for which the “% Inhibition @ 10 uM” value was determined as 0.882%.
Under `COc1cccc(-c2[nH]nc3c2C(c2cc(OC)c(OC)c(OC)c2)C(C#N)=C(N)O3)c1` (stereo not shown) stands -5.63%.
For `N#Cc1ccccc1C(C(N)=O)(c1ccccc1)c1ccccc1C#N`, the “% Inhibition @ 10 uM” value is on record as 2.26%.
In the case of `CCN(C(=O)CCCOc1ccc(Cl)cc1Cl)c1ccccc1`, the “% Inhibition @ 10 uM” value is reported as -7.06%.
